The campaign covered roughly 3,200 compounds. About 110 (3.4%) showed an effect of 50% or more. The list shows a part of the results.
What follows are compounds tested on T1, V. cholerae SAD30. Settings: relative growth, OD600, LB; 25 µM; inhibitor.
T1 construct: SAD30
Design: species or system S. aureus MSSA476 (TSB) or V. cholerae SAD30 (LB); 384-well bacterial growth screen at 25 uM, OD600 relative to DMSO control

SMILES | % of control remaining
C=CC(=O)N1CCC(C(=O)N2CCC(C(=O)NC3CC3)CC2)CC1 [2-D10, N-cyclopropyl-1-[1-(prop-2-enoyl)piperidine-4-carbonyl]piperidine-4-carboxamide] | 95.2909%
C=CC(=O)Nc1cc(C(=O)CC)ccc1F [2-C22, N-(2-fluoro-5-propanoylphenyl)prop-2-enamide] | 116.289%
CNC(=O)C(NC(=O)CCl)c1ccccc1 (stereo not shown) [6-M06, 2-(2-chloroacetamido)-N-methyl-2-phenylacetamide] | 92.0656%
CN(CC(=O)Nc1ccccc1C(F)(F)F)C(=O)CCl [4-K05, 2-chloro-N-methyl-N-({[2-(trifluoromethyl)phenyl]carbamoyl}methyl)acetamide] | 103.86%
C=CC(=O)N1CCC(C(=O)NCc2ccc(Cl)cc2Cl)CC1 [1-E20, N-[(2,4-dichlorophenyl)methyl]-1-(prop-2-enoyl)piperidine-4-carboxamide] | 87.2945%
CC(Cl)C(=O)Nc1ccc(C(=O)N(C)C2CCCN(C)C2)cc1 (stereo not shown) [7-I20, 4-(2-chloropropanamido)-N-methyl-N-(1-methylpiperidin-3-yl)benzamide] | 79.1674%
N#CC(=Cc1cc(F)ccc1F)C(=O)Nc1cc(Cl)ccc1Cl [8-A12, 2-cyano-N-(2,5-dichlorophenyl)-3-(2,5-difluorophenyl)prop-2-enamide] | 80.2855%
C=CC(=O)Nc1ccnn1CC1CC1 [3-G09, N-[1-(cyclopropylmethyl)-1H-pyrazol-5-yl]prop-2-enamide] | 95.442%
O=C(CCl)NC(=O)Nc1ccccc1 [4-I17, 3-(2-chloroacetyl)-1-phenylurea] | 100.237%
N#CC(=Cc1ccc(Sc2ccccc2)o1)C(=O)Nc1ccccc1 [8-K05, 2-cyano-N-phenyl-3-[5-(phenylsulfanyl)furan-2-yl]prop-2-enamide] | 68.1849%
O=C(CCl)Nc1ccc(F)cc1[N+](=O)[O-] [4-I07, 2-chloro-N-(4-fluoro-2-nitrophenyl)acetamide] | 90.7483%
C=CC(=O)NC1CCC(c2nc(CC)no2)CC1 (stereo not shown) [1-O08, N-[4-(3-ethyl-1,2,4-oxadiazol-5-yl)cyclohexyl]prop-2-enamide] | 89.2377%
O=C(CCl)NCCSc1ccccc1 [4-G21, 2-chloro-N-[2-(phenylsulfanyl)ethyl]acetamide] | 113.522%
